Test results published in PubChem BioAssay AID1159614 (National Center for Advancing Translational Sciences (NCATS), 2016).
In all, about 45,000 compounds went through this assay and about 65 (0.1%) were called active. The call rests on the fitted dose curve; in most records, active means well fitted activation curve with a large enough effect; inconclusive means small, poorly fitted or top-dose-only effect; inactive means no such curve, though single readings can be large or run the other way. Some of the results follow.

Target: Galactocerebrosidase (Homo sapiens) (UniProt P54803)
Chain of UniProt P54803 (P54803 whole entry, looked up): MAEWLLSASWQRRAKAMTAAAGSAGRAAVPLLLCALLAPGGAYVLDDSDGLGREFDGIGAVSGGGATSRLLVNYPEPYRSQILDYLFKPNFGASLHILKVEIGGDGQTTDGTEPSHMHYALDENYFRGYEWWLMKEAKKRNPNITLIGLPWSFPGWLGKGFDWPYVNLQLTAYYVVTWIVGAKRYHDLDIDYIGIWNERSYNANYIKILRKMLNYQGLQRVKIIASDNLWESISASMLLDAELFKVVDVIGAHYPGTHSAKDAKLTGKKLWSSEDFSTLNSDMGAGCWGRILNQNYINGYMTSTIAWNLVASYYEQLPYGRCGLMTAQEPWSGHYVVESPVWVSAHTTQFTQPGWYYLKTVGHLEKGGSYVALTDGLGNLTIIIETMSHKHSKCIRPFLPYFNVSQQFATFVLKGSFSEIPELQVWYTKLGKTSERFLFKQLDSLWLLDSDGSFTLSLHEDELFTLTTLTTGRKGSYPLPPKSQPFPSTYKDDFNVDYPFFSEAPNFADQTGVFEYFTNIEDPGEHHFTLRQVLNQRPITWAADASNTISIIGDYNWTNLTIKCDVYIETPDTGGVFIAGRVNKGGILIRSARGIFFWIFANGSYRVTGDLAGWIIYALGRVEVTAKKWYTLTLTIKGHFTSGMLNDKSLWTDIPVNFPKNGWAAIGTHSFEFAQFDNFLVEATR
Assay: A Novel Cell-Based Assay to Identify Small Molecules for B -Galactocerebrosidase; further: 0% is about no effect; nearly all actives have a fitted effect of over 65% in size
Conditions: 145M-Twi-hGALC-G270D cells, HMU-beta-Gal fluorescence, 48 h; series mostly up to 57.5 µM; activation: at the top concentration
In short: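 qHTS, 1536-well; 145M-Twi-hGALC-G270D cells (WT line also made) in DMEM/F12 + 10% FBS; compound incubation on live cells; HMU-β-gal 0.1 mM final, pH 5.2, NaTC; carbonate stop; fluorescence increase = enhanced residual activity.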

activation, inactive:
CCc1cccc(NC(=O)CCn2c(=O)c3cccn3c3cccnc32)c1 2.17%
CCOc1ccc(-n2cc(-c3ccccc3)c3c(NCCc4ccccc4)ncnc32)cc1 -4.43%
Cc1cccc(NC(=O)Cn2nc(-c3ccccc3)c3cnc4ccccc4c32)c1 -6.49%
CCOC(=O)N1CCc2c(sc3c2c(=O)n(Cc2ccccc2)c(=O)n3CC(=O)Nc2cccc(CC)c2)C1 -9.29%
CCOC(=O)c1ccc(NC(=O)Cn2nc3c4ccccc4n(Cc4cccc(F)c4)cc-3c2=O)cc1 -17.1%
O=C(CCn1c(=O)c2sccc2n(Cc2ccccc2F)c1=O)NCc1ccc2c(c1)OCO2 -13%
COC(=O)Cn1c(C2CC(=O)N(c3c(C)cccc3C)C2)nc2ccccc21 (stereo unspecified) 3.91%
Cc1cc(NC(=O)CCc2nc3cccnc3n2-c2ccccc2)ccc1Br -34.7%
O=C(CCNS(=O)(=O)c1ccc2c(c1)CCCC(=O)N2)Nc1cccc(Cl)c1 -21.1%
COc1ccc(C(=O)c2c(N)c(-c3nc(-c4ccc5c(c4)OCO5)cs3)c3ccccn23)cc1 -15%
O=C(NCCc1ccccc1)c1ccc(CS(=O)Cc2ccc(Cl)cc2)o1 (stereo unspecified) -10.1%
Cc1ccccc1NC(=O)Cn1cc(C(=O)c2ccco2)c2ccccc21 -16.1%
Cc1ccc(C)c(N2CCN(c3ncnc4c3nc3n4CCCC3)CC2)c1 -23.4%
O=C(Nc1ccc(F)cc1F)C1CCN(c2ncccn2)CC1 -3.8%
O=S(=O)(c1ccc(C2CCCCC2)cc1)N1CCN(c2ccc(Cl)c(Cl)c2)CC1 -6.78%
COc1ccc(-c2nc(CNC(=O)NC3CCCCC3)c(C)o2)cc1 -4.4%
COc1cc(C(CC(=O)Nc2ccc(C)c(F)c2)N2Cc3ccccc3C2=O)cc(OC)c1OC (stereo unspecified) -8.42%
CCN(CC)c1ncnc2c1cnn2-c1cc(Cl)ccc1C -17.5%
O=C1OCC2=C1C(c1cccc(Cl)c1)CC(=O)N2c1ccc(C(F)(F)F)cc1 (stereo unspecified) -3.47%
CCOc1ccccc1NC(=O)C1CCN(S(=O)(=O)c2c(C)noc2/C=C/c2ccco2)CC1 -13.9%
CCOC(=O)c1c(C)[nH]c(C)c1S(=O)(=O)N(C)CC(=O)Nc1ccc(OC)cc1 -9.36%
O=C1c2ccccc2C(=O)C1c1ccc(Br)cc1 1.67%
Cc1cccc(Cn2cc(S(=O)(=O)c3cccc(Cl)c3)c(=O)c3cc(F)c(N4CCOCC4)cc32)c1 -11.1%
Cn1c(=O)c2nc(SCC(=O)Nc3ccc(OC(F)(F)F)cc3)n(C)c2n(C)c1=O -5.45%
COc1ccc(CC(=O)Nc2c(C(=O)N3CCN(c4ccccc4)CC3)oc3ccccc23)cc1OC -23%
CC1CCCN(CCCNC(=O)c2cc(Sc3ccc(F)cc3)nc3ccccc23)C1 (stereo unspecified) -4.69%
COc1cc(NC(=O)Cn2nc(C(F)(F)F)c3c2CCC3)cc(OC)c1OC 2.59%
COc1cc(OC)cc(-c2cc3nc(C)c(CCC(=O)NCCc4cccc(C)c4)c(C)n3n2)c1 -8.31%
O=C(CCn1c(=O)c2ccccc2n(CC(=O)Nc2cccc(F)c2)c1=O)NCCc1ccccc1 -7.59%
COc1ccc(OC)c(CNC(=O)c2ccc(N3Cc4ccccc4Oc4ncccc43)s2)c1 -31%
COc1cccc(CNC(=O)c2cc3c(-c4ccccc4F)nn(C)c3s2)c1 -12.5%
CCOC(=O)c1cccc(NC(=O)CCSCCc2ccccn2)c1 -13.6%
O=C(CCCn1c2ccccc2c(=O)c2ccccc21)Nc1cccc(Cl)c1 -5.06%
COc1cc(C2Nc3ccccc3-c3cc(C)nn32)ccc1O (stereo unspecified) -18.9%
Cc1ccc(NC(=O)Cn2nc(-c3ccccc3)nc(Cc3ccc(Cl)cc3)c2=O)cc1 -12.3%
Cc1noc(-c2ccc(-c3noc(-c4ccc(F)cc4)n3)cc2)n1 -14.7%
COCCn1c(SCC(=O)Nc2cc(Cl)ccc2OC)nc2c([nH]c3ccccc32)c1=O -5.82%
O=C(NCCc1ccc(Cl)cc1)c1c2c(nc3ccccc13)C(=O)N(C1CCCCC1)C2 -4.55%
Cc1csc2nc(COC(=O)c3ccccc3NC(=O)c3cccc(Br)c3)cc(=O)n12 -1.49%
O=S(=O)(c1ccc(Br)s1)N1CCN(c2cccc(C(F)(F)F)c2)CC1 -12.4%
CCCCCn1c(NCc2ccc(OC)cc2)nc2ccccc21 9.49%
Cc1ccc(C(=O)c2cn(CC(=O)Nc3ccc(C(C)C)cc3)c3nc(C)ccc3c2=O)cc1 -18.3%
Cc1ccc(NC(=O)CSc2nnc(-c3ccc([N+](=O)[O-])cc3)o2)c(C)c1 -17.3%
CCS(=O)(=O)N1CCCC(C(=O)NCCOC)C1 (stereo unspecified) -8.56%
CCOc1ccc(C(=O)Cn2c(=O)n3nc(CCn4nc(C)cc4C)nc3c3cc(OC)c(OC)cc32)cc1 0.495%
Cc1cccc(N(C)c2nc3ccccc3c3nnc(C)n23)c1 -13.8%
COC(=O)Cn1c(=O)c2cccn2c2ccc(F)cc21 -7.59%
COc1cc(NC(=O)c2cc(C3CC3)nc3c2c(C)nn3-c2ccccc2)cc(OC)c1 -14.3%
Cc1ccccc1N1CCN(S(=O)(=O)c2nnc(NC(=O)c3ccc(C(C)C)cc3)s2)CC1 -14%
Cc1cc(C)cc(NC(=O)Cn2c(-c3cncs3)nc3ccccc32)c1 -8.82%
Cc1ccccc1NC(=O)CC(NCc1cccnc1)C(=O)O (stereo unspecified) -15.7%
CCOC(=O)c1ccc(NC(=O)c2cnc3c(-c4ccc(F)cc4)c(C)nn3c2C)cc1 -6.22%
COc1ccc(-n2nc(C(=O)Nc3ccccn3)c3c4ccccc4n(C)c3c2=O)cc1 -0.471%
COc1ccccc1OC(C)C(=O)Nc1cccc(-c2nc3ccccc3s2)c1 (stereo unspecified) -31.2%
Cc1cc(C)n(-c2nc3ccccc3nc2Nc2ccc(N(C)C)cc2)n1 -8.08%
CCOc1ccc(-c2nc3c(c(SCC(=O)Nc4ccccc4C)n2)Cc2ccccc2O3)cc1 -10.4%
Cc1ccccc1Cn1nnc2c(=O)[nH]c(C3CCN(C(=O)c4ccc(F)cc4)CC3)nc21 -2.84%
Cc1cc(C)c(Cn2c3ccccc3c3cnn(CC(=O)NCc4cccs4)c(=O)c32)c(C)c1 -8.77%
CN(C)c1ccc(CNC(=O)c2ccc(Cn3c(SCc4ccccc4)nc4cccnc43)cc2)cc1 -15.6%
Cc1ccccc1CNC(=O)c1ccc2c(c1)c(C)c(C)n2C 3.74%
CCc1ccc(CNC(=O)c2cnc3sc(N4CCCC4)nn3c2=O)cc1 -4.58%
Cc1ccc(Cl)cc1NC(=O)C1CCN(c2nnc(C)c3c(C)n(-c4ccccc4)nc23)CC1 -8.78%
CCc1cccc(NC(=O)COC(=O)c2cn(CC)c3nc(C)ccc3c2=O)c1 1.95%
CCCc1cc(=O)[nH]c(SCC(=O)N2CCN(c3ccccc3)CC2)n1 1.61%
COc1ccc(CNC(=O)CSCc2nc(-c3ccccc3C)oc2C)cc1 -13.5%
COc1ccc(CNC(=O)c2ccc(-c3nc(CSc4ccccc4)c(C)o3)cc2)cc1OC -13.1%
CCc1ccc(-n2c(=O)c3c4c(sc3n(CC(=O)c3ccc(F)cc3)c2=O)CCC4)cc1 -30.3%
CCC(C)NC(=O)CCCN1C(=O)CCn2nc(-c3cccn3C)cc21 (stereo unspecified) -16.6%
COc1ccc(-c2ccc3c(N)c(C(=O)c4ccc(OC)c(OC)c4)sc3n2)cc1 -17.7%
CC(C)c1nn2c(=O)cc(COC(=O)c3ccc(NC(=O)COc4ccccc4)cc3)nc2s1 3.35%
COc1ccccc1C(=O)Nc1ccccc1OCc1cc(=O)n2c(C)csc2n1 -17.3%
CC(=O)Nc1nonc1-c1nnc(SCC(=O)Nc2ccc(C)cc2)n1-c1ccccc1 -14.2%
COC(=O)c1ccccc1NC(=O)c1cc(-c2ccccc2O)no1 -0.0182%
CCCN1CCN(c2ncnc3sc(C(=O)Nc4ccc(C(C)C)cc4)c(C)c23)CC1 -5.07%
O=C(CS(=O)(=O)c1cccc2nsnc12)N1CCN(c2cccc(Cl)c2)CC1 -18.6%
COc1ccc(-c2cc(-c3ccccc3)c(C#N)c(SCC(O)CS(=O)(=O)Cc3ccc(Cl)cc3)n2)cc1 (stereo unspecified) -21%
CCOC(=O)c1sc2cccc(F)c2c1S(=O)(=O)NCc1ccccc1Cl -22.2%
COc1ccc(NC(=O)CN2C(=O)CCn3nc(-c4cccn4C)cc32)cc1Cl -18.1%
O=S(=O)(c1ccc(-c2cc(C(F)(F)F)on2)s1)N1CCN(c2ccccc2F)CC1 -23%
Cc1cccc(NC(=O)Cn2nnc(-c3nc(-c4ccncc4)no3)c2N)c1 -10.1%
COc1ccc(CN2CCc3c(c(=O)n4ncc(C(=O)N5CCN(c6ccccc6OC)CC5)c4n3C)C2)cc1 -26.5%
Cc1ccc(NC(=O)CN2C(=O)c3ccccc3Sc3ccc(C(=O)N4CCOCC4)cc32)cc1F 5.94%
COc1cccc(N2CCN(C(=O)c3ccc(C)c(NC(=O)c4nsc5ccccc45)c3)CC2)c1 -14.8%
COc1cc(SC)ccc1C(=O)Nc1ccc(S(=O)(=O)Nc2nccc(C)n2)cc1 -20.8%
Cc1ccc(C(c2sc3nc(-c4ccco4)nn3c2O)N2CCCC2)cc1 (stereo unspecified) -2.95%
Cc1ccc(N(CC(=O)NCCc2ccc(Cl)cc2)S(=O)(=O)c2c(C)noc2C)cc1 -2.4%
COc1ccc(NC(=O)CN2C(=O)CCn3nc(-c4cccn4C)cc32)cc1 -12.2%
CCOC(=O)C1CCN(c2cc3c(cc2NC(=O)c2ccc(Cl)cc2)n(C)c(=O)n3C)CC1 -14.1%
CCOc1ccc(Nc2oc(-c3ccc(COc4ccc(OC)cc4)o3)nc2C#N)cc1 -15.1%
Cc1cc(Nc2ccccc2F)n2nc(-c3ccccc3)nc2n1 -13%
COc1ccc(S(=O)(=O)NCc2ccc3c(c2)CCN3C(=O)c2ccccc2)cc1OC -4.87%
COC(=O)c1ccc(Cl)cc1NC(=O)N1CC2CCCN2c2ccccc21 (stereo unspecified) -10.6%
Cc1ccc(NC(=O)C(=O)NCC(c2cccnc2)N2CCN(Cc3ccccc3)CC2)cc1C (stereo unspecified) -38.2%
COc1ccccc1OCCn1c(NC(=O)c2ccccc2Cl)nc2ccccc21 -18.5%
Cc1cc(C)c(Nc2nc3ccccc3n3c(C)nnc23)c(C)c1 -18.7%
COc1ccc(NC(=O)Cn2cc(S(=O)(=O)N3CCN(c4ccccc4F)CC3)c3ccccc3c2=O)cc1Cl -18.2%
